# Assay results taken from paper PMC4336329 (PLoS ONE, 2015).
# The whole screen tested about 310,000 compounds, of which about 2,200 (0.71%) showed an effect of 50% or more. The effect is printed as a negative number. The list shows a part of the results.
# Target: human ether-à-go-go-related gene (hERG) potassium channel (human, UniProt Q12809)
# Assay: primary screen, population patch clamp on CHO cells stably expressing hERG
# human ether-à-go-go-related gene (hERG) potassium channel, sequence (Q12809 whole entry, looked up): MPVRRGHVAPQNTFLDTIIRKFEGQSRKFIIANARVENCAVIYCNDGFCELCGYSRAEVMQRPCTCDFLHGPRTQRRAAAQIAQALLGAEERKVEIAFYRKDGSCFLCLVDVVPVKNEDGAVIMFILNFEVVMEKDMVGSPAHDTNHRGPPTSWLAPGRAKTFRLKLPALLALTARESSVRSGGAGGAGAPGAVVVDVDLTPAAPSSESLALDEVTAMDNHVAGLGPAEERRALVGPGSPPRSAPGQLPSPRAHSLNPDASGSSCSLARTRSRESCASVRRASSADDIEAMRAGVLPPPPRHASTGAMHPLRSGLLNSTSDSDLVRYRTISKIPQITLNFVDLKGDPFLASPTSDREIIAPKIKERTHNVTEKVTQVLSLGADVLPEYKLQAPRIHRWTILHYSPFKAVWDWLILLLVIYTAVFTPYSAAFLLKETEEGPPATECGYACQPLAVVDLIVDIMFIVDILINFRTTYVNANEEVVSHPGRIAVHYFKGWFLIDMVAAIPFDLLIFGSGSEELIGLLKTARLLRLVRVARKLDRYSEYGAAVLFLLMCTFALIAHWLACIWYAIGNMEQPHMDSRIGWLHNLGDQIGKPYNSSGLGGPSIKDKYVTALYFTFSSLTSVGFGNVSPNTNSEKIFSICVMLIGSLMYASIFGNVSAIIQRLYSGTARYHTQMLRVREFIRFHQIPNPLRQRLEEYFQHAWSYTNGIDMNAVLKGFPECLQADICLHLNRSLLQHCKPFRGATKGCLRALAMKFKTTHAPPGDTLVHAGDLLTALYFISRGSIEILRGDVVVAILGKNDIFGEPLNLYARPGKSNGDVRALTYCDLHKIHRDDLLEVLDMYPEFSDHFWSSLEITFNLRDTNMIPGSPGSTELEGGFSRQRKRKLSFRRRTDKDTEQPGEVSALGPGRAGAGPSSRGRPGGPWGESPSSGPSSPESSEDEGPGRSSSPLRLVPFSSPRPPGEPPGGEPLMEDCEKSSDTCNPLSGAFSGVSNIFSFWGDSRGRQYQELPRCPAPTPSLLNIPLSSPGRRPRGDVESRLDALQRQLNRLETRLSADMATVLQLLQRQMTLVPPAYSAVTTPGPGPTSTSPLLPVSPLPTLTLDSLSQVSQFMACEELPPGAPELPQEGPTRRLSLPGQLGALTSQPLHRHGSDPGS
row,SMILES,"hERG current change (%, negative = inhibition) at 1uM"
1,COc1ccc(NC(=O)CCN2C(=O)c3cccc([N+](=O)[O-])c3C2=O)cc1,-1.59%
2,Nc1ccccc1-c1ccccc1N,13.2%
3,COCCN(Cc1nc(C2(c3ccc(C)cc3)CCCC2)no1)C(C)C,6.96%
4,Cc1ccccc1C(=O)NNC(=O)CCC(=O)Nc1cccc(Cl)c1C,7.64%
5,COc1ccccc1NC(=O)COc1ccc(/C=N/NC(=O)CSCc2cc(C)cc(C)c2)cc1,14.5%
6,CSC1=NCCN1C(=O)c1ccc(S(=O)(=O)N2CCCC2)cc1,11.6%
7,O=C(Nc1nccs1)c1cc(-c2ccncc2)nc2ccccc12,17.4%
8,COc1cc(-c2cc(N)n(S(=O)(=O)c3ccccc3)n2)cc(OC)c1OC,19.1%
9,CCCC(C)n1[nH]c(=O)c2c1NC(=O)CSC2c1ccc(OC)cc1 (stereo not drawn),10.5%
10,CCN1CCN(CC(=O)N2N=C(c3ccc(OC)cc3)CC2c2ccc(OC)cc2)C(=O)C1=O (stereo not drawn),8.58%
11,Cn1c(=O)c(-c2ccccc2)c(O)c2ccccc21,0.552%
12,COc1ccc(Cl)cc1NC(=O)CSc1nnc(C2CC2)n1C,12.3%
13,COc1cc(CNCCc2ccc3c(c2)OCO3)cc(OC)c1OC.O=C(O)C(=O)O,10.2%
14,CCCCSc1nnc(-c2ccc(NC(C)=O)cc2)n1C,3.34%
15,C=C1CCN([C@@H](CC(C)C)C(=O)NN2CCOCC2)S(=O)(=O)c2ccccc21,9.07%
16,CC1=C(C(=O)OCc2ccccc2)C(c2cccnc2)n2ncnc2N1 (stereo not drawn),17.3%
17,Cc1ccc(C(=O)Nc2ccc(N3CCOCC3)cc2)cc1,6.97%
18,O=C(CSCc1ccccc1)Nc1ccc2c(c1)C(=O)NC2=O,24.6%
19,CCOC(=O)CC1C(=O)NCCN1S(=O)(=O)c1ccc(C)cc1 (stereo not drawn),16.5%

row,SMILES,"hERG current change (%, negative = inhibition) at 1uM"
1,C/C(CC(=O)NCC(C)C)=N\NC(=O)COc1cc(C)c(Br)cc1Br,1.09%
2,COc1ccc(CNC(=O)C2CC(=O)N(c3ccc(OCC(=O)N4C(C)CCCC4C)cc3)C2)cc1 (stereo not drawn),-24.4%
3,COc1ccc(CNC(=O)CCC(=O)n2ncc3cc(C)ccc32)cc1,2.16%
4,CCc1ccc(N2CC(C(=O)OCc3csc(CC(=O)Nc4ccccc4C)n3)CC2=O)cc1 (stereo not drawn),11%
5,CC(=O)c1cccc(OCC(O)CNCCc2ccc(Cl)cc2)c1 (stereo not drawn),10.6%
6,COc1ccc(/C=C2\SC(=S)N(CC(=O)NC3CCS(=O)(=O)C3)C2=O)cc1 (stereo not drawn),17.2%
7,CCn1c(C(=O)NCc2ccccn2)cc2sccc21,4.37%
8,CN(C)CCn1c2c(c(SCC(=O)Nc3ccc4c(c3)OCCO4)nc1=O)CCCC2,7.17%
9,COc1ccc(-n2ccnc2SCC(=O)Nc2cc(C)on2)cc1,12.1%
10,CCOC(=O)Cc1nnc(NC(=O)c2ccccc2OC)s1,12.7%
11,COc1ccccc1Oc1ccc(NC(=O)c2ccccc2)cc1,10.4%
12,Cc1cc([N+](=O)[O-])nn1CCCC(=O)N1CCN(c2ccccc2)CC1,0.954%
13,Cc1cc(C)nc(Sc2nc(C)nc3c2oc2ccccc23)n1,0.955%
14,CCOc1ccc(-c2cc(C)n3nc(C(N)=O)cc3n2)cc1,7.16%
15,CCOC(=O)C1=C(c2ccccc2)OC(N)=C(C#N)C1c1ccc(Cl)s1 (stereo not drawn),6%
16,O=C(COC(=O)[C@@H]1CC(O)CN1S(=O)(=O)c1ccc([N+](=O)[O-])cc1)NC12CC3CC(CC(C3)C1)C2 (stereo partly drawn),1.67%
17,COCCOC(=O)c1c(C)oc2ccc(OCc3ccccc3)cc12,0.412%
18,O=C(COC(=O)c1ccccc1SCC(=O)N1CCCC1)NC1CCCCC1,14.6%
19,Cc1ccc(CS(=O)Cc2ccc(C(=O)NC3CCCCC3)o2)cc1 (stereo not drawn),7.95%

row,SMILES,"hERG current change (%, negative = inhibition) at 1uM"
1,CCOc1ccccc1CNc1nc2nc3c(c(=O)n2[nH]1)CCC3,18.1%
2,CCOC(=O)c1ccc(NC(=O)c2nc[nH]c2C(=O)NC2CCN(C(=O)OC(C)(C)C)CC2)cc1,13.5%
3,CC(C)CC(NC(=O)c1ccccc1)C(=O)OCC(=O)Nc1ccc(Br)cn1 (stereo not drawn),6.08%
4,O=C(CCSc1ccccc1)Nc1ccccc1Br,5.93%
5,CC(C)(C)N1CC23CCC(C[C@@H]2C1=O)O3 (stereo partly drawn),4.22%
6,CCCCc1nnc(NC(=O)c2cccc(S(=O)(=O)N3CCN(C)CC3)c2)s1,5.56%
7,CCOc1cc2[nH]c(=S)n(CCC(=O)NCc3ccco3)c(=O)c2cc1OCC,3.76%
8,COc1ccc(-c2ccc(CCC(=O)O)o2)cc1,4.37%
9,O=C(Nc1nnc(SCC(=O)N2CCCC2)s1)C1CC(=O)N(c2ccc(F)cc2)C1 (stereo not drawn),14.7%
10,COC(=O)C1=NN[C@H](C(=O)OC(C)(C)C)[C@H]1c1ccccc1,6.7%
11,OCC[C@@H]1C[C@H](O)[C@@H](O)[C@@]2(OCCCc3ccccc32)O1,16.3%
12,CC1(C)CC(N2CCCC2)=CC(=[N+]2CCCCC2)C1.[I-],13.4%
13,Cc1nc(N2CCOCC2)c2cc(-c3ccccc3)sc2n1,7.87%
14,CCCCN(CCCC)CCNC(=O)c1cn(CC)c2ccc(S(=O)(=O)N3CCc4ccccc4C3)cc2c1=O,-2.12%
15,CCOc1cccc2sc(Cl)nc12,11.1%
16,COCCN(C(=O)c1oc2ccccc2c1COC)c1c(N)n(CC(C)C)c(=O)[nH]c1=O,12.8%
17,Cc1ccc2nc(N3CCN(C)CC3)[nH]c2c1.Cl,12.9%
18,Cc1ccccc1NC(=O)/C=C1\SC(=O)NC1=O,10.6%
19,C=CCC(NC(C)c1ccccc1)c1ccco1 (stereo not drawn),-6.93%
